Experimental data from PubChem BioAssay AID938 (National Center for Advancing Translational Sciences (NCATS), 2007).
The campaign covered roughly 73,000 compounds. About 1,800 (2.5%) were called active. Inconclusive results, whose numbers are uncertain, are shown with a selection of clear calls. Calls come from the whole dose curve; as a rule, active = well fitted activation curve with a large enough effect; inconclusive = small, poorly fitted or top-dose-only effect; inactive = no such curve, though single readings can be large or run the other way. Potencies of inconclusive entries are left out as doubtful fits.

Assay: qHTS Assay for Agonists of the Thyroid Stimulating Hormone Receptor: Activators of Intracellular cAMP Concentrations in Parental HEK 293; note: nearly all actives have a fitted effect of over 55% in size; for activation: % of control where 0% means no effect
Details: parental HEK293 CNG cAMP sensor, membrane potential fluorescence; activation: at 57.1 µM (top of the series) unless noted
In short: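 Parental HEK 293 cells stably expressing a modified CNG channel (no TSHR) report cAMP rise as membrane depolarization. Membrane potential dye with 100 uM RO 20-1724 was loaded for 60 min at room temperature, then compound added for 30 min; fluorescence read at 590 nm.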
Potency is the fitted concentration of half-maximal effect; tags give direction and shape of the fitted curve.

Compound	activation	Potency
CN(C)c1ccc(-c2cncnc2-n2ccnc2)cc1	inactive: 2.65%	
Cc1ccc(CSC2=Nc3ccccc3C3=NC(CC(=O)NCc4ccco4)C(=O)N23)cc1 (stereo unspecified)		inconclusive [activator, partial curve]
COC(=O)Cn1c(C(=O)N2CCCC2)cc2c1C[C@H]1CN(C(=O)c3ccccc3)[C@@](Cc3ccccc3)(C(=O)OC)[C@@H]21		active: 20 µM
O=C(O)CCC(=O)N1CCN(c2ccc(C(=O)c3ccc(F)cc3)cc2)CC1	inactive: -5.02%	
Cc1ccc(Nc2nc(N)nc(CN3CCCCCC3)n2)c(C)c1	inactive: 5.8%	
O=C(O)[C@H]1CN[C@H](C(=O)O)C1	inactive: 11%	
COc1ccc2c(c1)C1(Nc3ccccc3-c3nc4ccccc4n31)C(=O)N2 (stereo unspecified)		inconclusive [activator, partial curve]
COc1cc(S(=O)(=O)N2CCOCC2)ccc1NC(=O)c1cc2c(s1)CCC2		inconclusive [activator, single point]
CCOC(=O)NC(=O)CSc1nc(C)cc(C(F)(F)F)c1C#N		inconclusive [activator, single point]
CCc1nnc(NC(=O)CSc2nnc3ncccn23)s1		inconclusive [activator, single point]
COc1ccccc1N1CCN(C(CNS(=O)(=O)c2cccs2)c2cccnc2)CC1 (stereo unspecified)		inconclusive [activator, single point]
O=C(Nc1nc2ccccc2[nH]1)c1ccccc1F	inactive: 6.12%	
N#Cc1cc2cc3c(cc2nc1SCC(=O)OC1CCCCC1)OCO3		active: 15.8 µM
COc1ccc(NC(=O)C=C(C)C)cc1Cl	inactive: 0.451%	
Cc1nn(-c2ccc(F)cc2)c2c1cc(C#N)c1nc3ccccc3n12		inconclusive [activator, single point]
Nc1ccccc1-c1nc2ccccc2[nH]1	inactive: -2.8%	
CC(C)CCn1cnc2c(cnn2-c2ccc(Cl)cc2)c1=O		inconclusive [activator, full curve]
Cn1c(=O)c2c(nc(CN3CCN(c4ccccc4F)CC3)n2CCCc2ccccc2)n(C)c1=O		inconclusive [activator, partial curve]
CCOc1ccc(-n2nnnc2SCC(=O)c2ccccc2)cc1		inconclusive [activator, partial curve]
Cc1cc(C)c(C#N)c(SCS(=O)Cc2ccc(Cl)cc2)n1 (stereo unspecified)		inconclusive [activator, full curve]
COC(=O)c1ccc(C2/C(=C(/O)c3ccc(OC)cc3)C(=O)C(=O)N2CC2CCCO2)cc1 (stereo unspecified)		inconclusive [activator, single point]
Cc1nc2ccccc2c(=O)n1/N=C/c1ccncc1	inactive: -6.92%	
COC(=O)c1[nH]c2ccc(Cl)cc2c1NC(=O)CN1CCc2cc(OC)c(OC)cc2C1	inactive: -12.4%	
CCOc1cc(CN2CCSCC2)ccc1O		active: 0.0316 µM
O=c1c2ccccc2nc2n1CCc1c-2[nH]c2ccccc12		inconclusive [activator, single point]
COc1ccc2[nH]c(C(=O)c3ccccc3)cc2c1		active: 7.94 µM

Compound	activation	Potency
Cc1ccc(-c2nc(C(=O)NC3CCCCCC3)no2)cc1		active: 20 µM
Clc1ccc(CN2C3=NCCN3c3ccccc32)cc1Cl		inconclusive [activator, single point]
O=C(CSc1ccc(Cl)cc1)NC1CCCC1		inconclusive [activator, single point]
O=S(=O)(c1cccc(-c2nc3ccccc3s2)c1)N1CCCC1		inconclusive [activator, single point]
COc1cccc(-n2nnc3c(=O)n(Cc4ccccc4F)cnc32)c1		active: 25.1 µM
CCn1c(COc2ccccc2)nnc1SCc1ccc(C#N)cc1		inconclusive [activator, partial curve]
CCOC(=O)c1oc2ccccc2c1NC(=O)c1cccc(OC)c1		active: 31.6 µM
O=C(CSc1nnc(C2CC2)n1Cc1ccccc1)c1cc2ccccc2o1		inconclusive [activator, single point]
COC(=O)c1ccc(OC)c(CSc2nnc(COc3cccc(C)c3)o2)c1		inconclusive [activator, partial curve]
C/C(O)=C(/N=O)C(=O)Nc1ccccc1	inactive: 3.81%	
Nc1nc(Nc2ccccc2Br)nc(C(F)(F)F)n1		inconclusive [activator, single point]
O=C(O)CCCCC1CCSS1 (stereo unspecified)		inconclusive [activator, single point]
COc1ccccc1OCCCn1c(C)c(C#N)c2ccccc21		inconclusive [activator, partial curve]
Clc1ccc(-c2nn3cnnc3s2)c(Cl)c1	inactive: 13.3%	
O=C(NCc1ccco1)C(c1ccccc1F)N(Cc1cccnc1)C(=O)Cn1nnc2ccccc21 (stereo unspecified)		inconclusive [activator, partial curve]
COc1cccc(CNn2cnnc2)c1OCc1ccc(F)cc1	inconclusive: 30.2% [activator]	
CCc1cc2cc(C(=O)N3CCN(Cc4ccccc4)CC3)sc2s1		active: 31.6 µM
c1ccc(OCCCCn2cnc3ccccc32)cc1		inconclusive [activator, single point]
O=S(=O)(c1ccc(Cl)cc1)N1CCSC1c1ccco1 (stereo unspecified)		inconclusive [activator, partial curve]
Cc1cc(C)c2c(CC(=O)NCc3ccco3)coc2c1	inactive: 17.5%	
CCOC(=O)O[C@]1(C(=O)COC(=O)CC)CC[C@@H]2[C@@H]3CCC4=CC(=O)C=C[C@@]4(C)[C@H]3[C@H](O)C[C@]21C	inactive: 27.4% [at 25.6 µM]	
Cc1cc(C)n(-c2nnc(C)n2/N=C/c2ccccc2OCc2ccccc2Cl)n1		active: 1.26 µM
COC(=O)c1sc(NC(=O)Cc2cccs2)nc1C	inactive: 6.97%	
COc1ccc(OC)c(C2CC(=O)N3CN(c4ccccc4)CSC3=C2C#N)c1 (stereo unspecified)	inactive: 8.87%	
CC1(C)CC(=O)C2=C(C1)Oc1ncn(CCCn3ccnc3)c(=N)c1C2c1ccccc1 (stereo unspecified)	inactive: 21.3%	
COc1ccc(-c2nnc(Nc3nc4c(OC)cccc4s3)o2)c(OC)c1	inactive: -1.21%	

Compound	activation	Potency
CC(C)C(=O)N1CCN(c2ccccc2NC(=O)Cc2ccc(Cl)cc2)CC1		inconclusive [activator, partial curve]
COc1ccc(NC(=O)N2CCC3(CC2)CCN(C(=O)c2cccn2C)CC3)cc1	inactive: 9.42%	
CCS(=O)(=O)Nc1ccc(C(=O)CC2(O)C(=O)Nc3ccccc32)cc1 (stereo unspecified)		inconclusive [activator, single point]
CC1(C)CC(CCNC(=O)c2ccc(-n3cnnn3)cc2)CC(C)(C)N1	inactive: 3.69%	
Cn1c(=O)c2c(nc(N3CCc4ccccc4C3)n2Cc2ccccc2F)n(C)c1=O		inconclusive [activator, single point]
O=C(CSc1ncccn1)Nc1ccccc1		inconclusive [activator, single point]
CC(C)NC(=O)N1CC2(CCN(C(=O)c3cc(C(F)(F)F)cc(C(F)(F)F)c3)CC2)C1		inconclusive [activator, partial curve]
CC(C)(C)P(=O)(CO)c1ccccc1 (stereo unspecified)		inconclusive [activator, partial curve]
C=CCc1cc(OC)ccc1OCCON1C(=O)CCC1=O	inactive: 1.94%	
COc1ccc(-n2nnnc2SCC(=O)c2ccc(OC)c(OC)c2)cc1		inconclusive [activator, single point]
Cc1onc(-c2c(Cl)cccc2Cl)c1C(=O)N1CCc2ccccc21		inconclusive [activator, single point]
O=C(CN1C(=O)C2C3C=CC(C3)C2C1=O)N1CC(=O)N(CCc2ccccc2)C(=O)C1 (stereo unspecified)		inconclusive [activator, single point]
O=C(Nc1nc(-c2ccncc2)cs1)C1COc2ccccc2O1 (stereo unspecified)		inconclusive [activator, single point]
CCOC(=O)CSc1nnc(CNC(=O)c2ccccc2OC)n1-c1ccc(OC)cc1		inconclusive [activator, single point]
CCCC(NC(=O)c1ccccc1)c1nc2ccccc2n1Cc1ccc(C(=O)OC)o1 (stereo unspecified)		inconclusive [activator, single point]
COc1ccc2cc3c(N)c(C(=O)N4CCCC4)sc3nc2c1	inactive: 1.9%	
CC(C)(CO)Cc1cc(C(C)(C)C)c(O)c(C(C)(C)C)c1		inconclusive [activator, single point]
CCCC(c1nnnn1Cc1ccccc1)N1CCN(c2ccccc2OC)CC1 (stereo unspecified)		active: 10 µM
Cc1cccc(C)c1N1CCN(S(=O)(=O)c2ccc(F)cc2)CC1		inconclusive [activator, full curve, poor fit]
COc1ccccc1-c1cc(NCc2cccc(C)c2)ncn1		active: 20 µM
Cc1cc2ccccc2n1CCNC(=O)c1cccs1		inconclusive [activator, full curve, poor fit]
CC(C)(C)C1=C(C#N)C(c2cc3c(cc2Br)OCO3)C(C#N)=C(N)O1 (stereo unspecified)		inconclusive [activator, partial curve]
Cc1nc2ccccc2c2oc(C(=O)N3CCN(C(=O)c4ccco4)CC3)cc12	inactive: 4.41%	
O=C(CC1CCCCC1)Nc1c2c(nn1-c1ccc(F)cc1)CS(=O)(=O)C2		active: 15.8 µM
